The values below come from the supplement of paper PMC3334620.

The full ranking holds about 33,000 sequences; the median of “E-score (-0.5 to 0.5)” is about -0.04, and the highest 2% start at about 0.36. Some of the results follow.

This assay concerns the target T1, Hmlalpha2 (UniProt P0CY09).
T1 sequence: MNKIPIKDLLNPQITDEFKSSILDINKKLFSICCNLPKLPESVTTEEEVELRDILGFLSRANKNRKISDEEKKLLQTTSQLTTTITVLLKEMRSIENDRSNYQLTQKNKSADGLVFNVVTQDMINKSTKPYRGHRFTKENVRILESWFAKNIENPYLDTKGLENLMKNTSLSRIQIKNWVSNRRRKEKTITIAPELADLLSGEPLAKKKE
In words: PBM E-score (8-mer binding enrichment) (E-score (-0.5 to 0.5)); higher = stronger / more preferred TF binding; most listed sequences are background and not binding sites. The following applies: protein concentration: 200 nM; construct: GST-full length. As to the method:
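Universal 'all 10-mer' protein binding microarrays (Agilent AMADID 015681) probed with GST-tagged S. cerevisiae TFs (full-length or DBD) made by in vitro transcription/translation (PURExpress), about 100-200 nM. Bound TF was detected with fluorescent anti-GST. Each ungapped 8-mer (which stands for itself and its reverse complement) is scored by the PBM enrichment score (E-score), a modified Wilcoxon-Mann-Whitney statistic from -0.5 to +0.5, computed with the Universal PBM Analysis Suite. Scale: above 0.35 generally sequence-specific binding.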
In the case of CTTATTCC, the “PBM E-score” value was -0.177.

Turning to AGCTTCAC, the “PBM E-score” value was 0.0362.

For CGGCGACC, the “PBM E-score” value is -0.348.

As to TACCTGGA, the “PBM E-score” value is -0.0428.

Take AAAAGATC: the “PBM E-score” value was -0.101.

Turning to TGAAGTAA, the “PBM E-score” value came out at 0.0779.

In the case of GAGCTCCC, the “PBM E-score” value is -0.322.

As to ACTTAACC, the “PBM E-score” value turned out to be 0.199.

For AGCGCCAC, the “PBM E-score” value is -0.225.

For ATCAGGAG, the “PBM E-score” value was -0.118.

Regarding ACGCGCTC, the “PBM E-score” value turned out to be 0.199.

As for GTAATCTA, the “PBM E-score” value was determined as 0.346.

For CACCATGG, the “PBM E-score” value is -0.125.

In the case of ATCTACAA, the “PBM E-score” value amounted to 0.307.

For the sequence ACATGCGC, the “PBM E-score” value is 0.308.

Take AAGGGGAC: the “PBM E-score” value was -0.0926.

For TGCTATAA, the “PBM E-score” value was -0.0105.

In the case of AATAAATT, the “PBM E-score” value turned out to be 0.198.

In the case of ATAGTGAG, the “PBM E-score” value was -0.0515.

With AAGTGGAC, the “PBM E-score” value was -0.184.

In the case of CACATGCA, the “PBM E-score” value was determined as 0.234.

As for CCCTGTCG, the “PBM E-score” value was -0.129.

For ATCAGGTA, the “PBM E-score” value is 0.0961.

Take AGCCTAAA: the “PBM E-score” value is -0.0705.

In the case of ACTAAAAT, the “PBM E-score” value is 0.136.

Take TCGGACGA: the “PBM E-score” value was -0.0603.

Consider AGCAACTG, for which the “PBM E-score” value was -0.138.

Consider CTATTCCA, for which the “PBM E-score” value came to 0.0558.

ATGCGGCG: the “PBM E-score” value was -0.153.

With AATCCAGA, the “PBM E-score” value amounted to 0.00071.

GTCCTGAA: the “PBM E-score” value was -0.158.

For the sequence CTGGACAC, the “PBM E-score” value is -0.109.

Consider AACATTCT, for which the “PBM E-score” value was 0.285.

With AAACTGTT, the “PBM E-score” value worked out at 0.12.

For the sequence AACTCGTG, the “PBM E-score” value came out at 0.0963.

Consider CAGAAGAA, for which the “PBM E-score” value was -0.252.

Take AGCCCGGG: the “PBM E-score” value is -0.17.

Take AGGATCAT: the “PBM E-score” value was 0.0783.

Consider AATCGCCC, for which the “PBM E-score” value was -0.35.

In the case of GCGGGGTA, the “PBM E-score” value was -0.232.

For GGTGAGGA, the “PBM E-score” value is -0.231.

For the sequence TACAATGA, the “PBM E-score” value was 0.18.

Regarding CTAAATAA, the “PBM E-score” value came to 0.309.

As for GCAATCAA, the “PBM E-score” value was 0.0206.

For the sequence CCGCGACA, the “PBM E-score” value was -0.0213.

Consider ATTACCCC, for which the “PBM E-score” value is -0.0121.

Consider TAGCAAGA, for which the “PBM E-score” value was found to be 0.133.

As for ATTTGGAC, the “PBM E-score” value was determined as 0.0778.

Turning to GCTACTAC, the “PBM E-score” value came out at 0.0679.

With CGGTCATA, the “PBM E-score” value is -0.265.

As for AAGCACGT, the “PBM E-score” value worked out at 0.211.

Take GGTAGGAC: the “PBM E-score” value was -0.248.

As for AGGTCACG, the “PBM E-score” value is -0.118.

In the case of ATAGCGGC, the “PBM E-score” value is -0.154.

For ATATTAGC, the “PBM E-score” value was 0.00321.

For AATGACAC, the “PBM E-score” value was found to be 0.216.

For CCTAGCAC, the “PBM E-score” value amounted to 0.0129.

For CCGGACAG, the “PBM E-score” value is -0.198.

For CATAGAGA, the “PBM E-score” value is 0.0234.

On to CAATTACA, for which the “PBM E-score” value came to 0.445.

Take ACCACCGC: the “PBM E-score” value is -0.173.

For the sequence AGACGCTA, the “PBM E-score” value is -0.0807.

Consider AATGGCAA, for which the “PBM E-score” value is -0.00778.

As for CCCGGAAG, the “PBM E-score” value was -0.263.

For the sequence CCCGCCTC, the “PBM E-score” value is -0.115.

On to ACTATAGC, for which the “PBM E-score” value was -0.0718.

As for ACGTTCAC, the “PBM E-score” value came out at 0.136.

Regarding CTGTACAC, the “PBM E-score” value is 0.291.

Regarding CGGAAATC, the “PBM E-score” value was -0.192.

Turning to CTCGACGC, the “PBM E-score” value came out at 0.12.

Take TAAGATTA: the “PBM E-score” value came out at 0.0218.

Consider CCAGATGG, for which the “PBM E-score” value is -0.196.

Regarding CCATCTAC, the “PBM E-score” value was determined as 0.0186.

For CGCAAAGA, the “PBM E-score” value came to 0.0517.

For the sequence ATTAATGC, the “PBM E-score” value turned out to be 0.035.

As to ACCCGCTC, the “PBM E-score” value is -0.247.

Turning to GAATGCAC, the “PBM E-score” value was found to be 0.0794.

For the sequence CACAAGAG, the “PBM E-score” value was 0.034.

On to GCTGCTCA, for which the “PBM E-score” value is -0.0809.

On to ATGGATCG, for which the “PBM E-score” value was found to be 0.0875.

For AGAACTAC, the “PBM E-score” value worked out at 0.0478.

On to CACCGCTG, for which the “PBM E-score” value is -0.119.

For GAAGCCAA, the “PBM E-score” value is -0.276.

For CAGCATGC, the “PBM E-score” value was 0.0476.

Regarding ATGGCTCG, the “PBM E-score” value is -0.1.

Regarding CGACAAGA, the “PBM E-score” value was 0.0828.

Turning to ATCCTTCC, the “PBM E-score” value was -0.239.

Take TGCGCGCA: the “PBM E-score” value worked out at 0.196.

On to CTCACTCA, for which the “PBM E-score” value is -0.031.

For the sequence ATAGGGAA, the “PBM E-score” value is -0.214.

On to GGCACTCA, for which the “PBM E-score” value is -0.166.

Take TAATTAGA: the “PBM E-score” value is 0.167.

As for AATGCCGG, the “PBM E-score” value is -0.0387.

Regarding TGACATCA, the “PBM E-score” value stood at 0.0838.

As for ACACGTTC, the “PBM E-score” value was found to be 0.303.

Consider AGCCATTA, for which the “PBM E-score” value stood at 0.139.

Regarding ACCATCGA, the “PBM E-score” value was 0.00536.

Consider GTCAGCAA, for which the “PBM E-score” value stood at 0.0177.

AAGAAACC: the “PBM E-score” value is -0.114.

With ACATTTGA, the “PBM E-score” value came out at 0.239.

Take AATCTTGC: the “PBM E-score” value is 0.00926.

Take TAAGCGAA: the “PBM E-score” value was determined as 0.122.

Take ACGGCCGG: the “PBM E-score” value was -0.202.

Regarding CATAGGCC, the “PBM E-score” value was 0.0507.

For the sequence GTTGCAAC, the “PBM E-score” value was 0.128.

Take CTACATAA: the “PBM E-score” value is 0.317.

CTAAAGTC: the “PBM E-score” value was -0.213.

Turning to TATAACCA, the “PBM E-score” value is 0.118.

On to ACTATTAC, for which the “PBM E-score” value stood at 0.304.

As for CCTGGAGC, the “PBM E-score” value is -0.146.
